Over roughly 33,000 sequences, “E-score (-0.5 to 0.5)” has its median near -0.053; the highest 2% begin near 0.37. This is one part of the list.
What follows are sequences tested against Hap1 (UniProt P0CE41) (assay: PBM E-score (8-mer binding enrichment) (E-score (-0.5 to 0.5)); higher = stronger / more preferred TF binding; most listed sequences are background and not binding sites). Conditions: protein concentration: 200 nM; construct: GST-DNA-binding domain.
Protocol: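 Universal 'all 10-mer' protein binding microarrays (Agilent AMADID 015681) probed with GST-tagged S. cerevisiae TFs (full-length or DBD) made by in vitro transcription/translation (PURExpress), about 100-200 nM. Bound TF was detected with fluorescent anti-GST. Each ungapped 8-mer (which stands for itself and its reverse complement) is scored by the PBM enrichment score (E-score), a modified Wilcoxon-Mann-Whitney statistic from -0.5 to +0.5, computed with the Universal PBM Analysis Suite. Scale: above 0.35 generally sequence-specific binding.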

Chain of UniProt P0CE41 (P0CE41 whole entry, the tested form may be a part): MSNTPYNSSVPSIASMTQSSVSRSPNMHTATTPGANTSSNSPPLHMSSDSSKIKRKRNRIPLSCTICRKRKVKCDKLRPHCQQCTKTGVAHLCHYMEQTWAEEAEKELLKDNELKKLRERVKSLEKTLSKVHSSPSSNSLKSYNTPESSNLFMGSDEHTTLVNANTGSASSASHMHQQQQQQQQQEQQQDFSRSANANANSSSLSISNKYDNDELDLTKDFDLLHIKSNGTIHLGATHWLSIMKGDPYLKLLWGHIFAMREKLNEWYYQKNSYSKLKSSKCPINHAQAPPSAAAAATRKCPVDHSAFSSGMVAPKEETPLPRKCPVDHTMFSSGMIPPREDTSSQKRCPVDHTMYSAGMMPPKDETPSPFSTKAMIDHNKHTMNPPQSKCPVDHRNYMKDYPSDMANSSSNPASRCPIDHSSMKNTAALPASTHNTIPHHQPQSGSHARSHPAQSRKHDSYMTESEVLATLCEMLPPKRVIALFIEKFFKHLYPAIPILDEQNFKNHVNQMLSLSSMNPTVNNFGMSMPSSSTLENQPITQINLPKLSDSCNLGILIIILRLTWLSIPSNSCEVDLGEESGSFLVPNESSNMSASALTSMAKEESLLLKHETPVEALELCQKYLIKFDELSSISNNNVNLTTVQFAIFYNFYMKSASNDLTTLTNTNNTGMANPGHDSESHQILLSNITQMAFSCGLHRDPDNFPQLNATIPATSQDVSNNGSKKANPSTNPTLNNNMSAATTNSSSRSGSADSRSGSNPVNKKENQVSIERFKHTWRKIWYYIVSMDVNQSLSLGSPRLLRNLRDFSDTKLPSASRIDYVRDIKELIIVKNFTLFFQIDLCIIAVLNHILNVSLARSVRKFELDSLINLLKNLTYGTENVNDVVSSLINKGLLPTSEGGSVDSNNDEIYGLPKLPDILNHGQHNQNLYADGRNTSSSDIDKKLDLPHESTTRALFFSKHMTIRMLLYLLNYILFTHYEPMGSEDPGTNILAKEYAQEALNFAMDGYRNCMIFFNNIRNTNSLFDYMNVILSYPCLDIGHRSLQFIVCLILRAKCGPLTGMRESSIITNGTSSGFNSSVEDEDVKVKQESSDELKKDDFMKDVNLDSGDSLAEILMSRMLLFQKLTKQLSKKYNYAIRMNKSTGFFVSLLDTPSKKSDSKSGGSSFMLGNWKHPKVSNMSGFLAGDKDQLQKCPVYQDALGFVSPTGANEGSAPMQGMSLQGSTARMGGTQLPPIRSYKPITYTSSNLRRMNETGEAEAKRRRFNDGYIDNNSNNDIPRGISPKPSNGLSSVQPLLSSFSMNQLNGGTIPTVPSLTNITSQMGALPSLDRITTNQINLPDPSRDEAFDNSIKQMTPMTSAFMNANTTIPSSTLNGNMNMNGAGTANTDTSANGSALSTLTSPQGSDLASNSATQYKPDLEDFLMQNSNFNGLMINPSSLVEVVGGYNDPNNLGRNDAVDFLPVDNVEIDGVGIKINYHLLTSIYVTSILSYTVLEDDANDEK

Sequence	PBM E-score
TCGCATCA	0.162
CAGTAGTA	-0.161
ACCACCAA	-0.0355
ATGTGAAA	-0.1
AAGTGCTC	-0.152
CTCAGTGA	-0.355
GCTGTAGA	-0.08
ACAATTCT	-0.199
CTAACAGC	0.0711
TCGTCCCA	-0.0952
ATAGCCGA	0.372
AACGCAGT	-0.0799
ATTTGTAA	-0.162
CAGCCCTA	-0.0376
AATATATA	0.134
GGGTTCAC	0.0978
GAGTATCC	0.0516
ATGCTGTA	-0.121
CATAGACC	0.0268
GGGATCTA	0.134
AGTAATGG	-0.145
ATGGTTGG	0.027
AGGACCCG	0.218
ATTTCGTG	-0.128
GAACCTTA	0.155

Sequence	PBM E-score
CTTCTACA	-0.154
CGCCAACA	0.00082
CTTGTAAA	-0.0806
GCAGGGAA	-0.0498
AAAACCGT	0.16
AGCTTCCT	-0.105
AATCGGAA	0.364
GGGGAGGA	0.093
GTACCATA	-0.15
AGAGGTTG	-0.271
AAATAGAC	-0.0583
CGTACGTC	-0.147
ATAAAGCG	0.0758
AGTTCGCG	0.0958
AAGCAACA	-0.218
CAGGGTGC	-0.22
CCGTCCGC	0.231
GATGAGAA	-0.198
AACAGAGG	-0.154
ACTCACAC	-0.0538
GTCCAAAC	-0.191
CCAGGACA	-0.0915
TATGTTGA	-0.119
GACGTCCA	-0.107
ACGCAATA	0.12

Sequence	PBM E-score
GATGGTCC	0.0894
GCTCGAAC	-0.0749
AGTCAAGG	-0.234
ACACTTAC	-0.163
GGCTCCAC	-0.155
GCGAGGAA	0.0678
ATCCGCAT	0.289
CTAGAACC	-0.132
GGGCCGAA	0.311
AAACTTGT	-0.122
CGATCTCA	-0.0152
CCCCGAGG	0.364
CGGTTAGA	0.193
CATGAAGC	0.107
AACGCCCG	0.27
ACGTTCTG	-0.0544
ACATTGCA	-0.123
CATTCCAG	-0.25
GGAACCCA	0.0578
AGTGTGGC	0.0217
ATGTGGCC	0.082
CTAACCGA	0.176
CTCTCTGA	-0.269
CATTGTTA	-0.159
CCTTCGCG	0.0859

Sequence	PBM E-score
CGCATGGA	-0.063
CATTATGG	0.0179
ATCTTGTC	0.0305
GACTGGCA	-0.149
AGCAATCG	-0.197
CAATTGGG	-0.17
AGGATTGA	-0.0926
CTGGGCGC	-0.136
ACCCAATC	0.089
AGAACCAA	-0.265
ATGGCCGG	0.315
CCCGCTCA	0.0705
AGAAGGAG	-0.248
GAGTGATA	-0.162
AACGCCAA	0.0354
CGGCAACC	0.179
AGGGAAAT	-0.0971
ACTACTTC	0.142
CAGTCTAC	-0.135
CGCTATGC	0.0649
GATATATA	0.198
TGCTCTAA	-0.0971
AGGCGCAG	-0.276
GGCTTCTA	0.0205
ACACCACC	-0.0508

Sequence	PBM E-score
GCCATTCC	0.151
ATTCTGTG	0.0384
GACCGCTA	0.269
TAACATAA	-0.0229
CCTTCATC	0.0228
GGTATAAA	0.2
GAATGCTA	-0.11
ATACGGTC	0.0985
ATTGCGCA	0.0389
ATTGGTTC	-0.0235
GGACTCGA	-0.0414
CGAAGCTC	0.0709
TACCACGA	-0.173
CAAAACCG	0.155
GATCGAGA	-0.0583
ATGCAGCC	-0.175
AGACAGAG	-0.243
CGGAATGA	0.263
AAGCGAGG	0.0558
CGACACAC	-0.0393
CAAGCGTG	-0.122
TCTATACA	-0.307
GACTAAAC	-0.11
CGACTGAA	0.0523
CTGTACTC	-0.0231

Sequence	PBM E-score
ACCCCCCA	-0.21
CGCTCCGA	0.324
ACGCTTCC	0.0365
ACAATGGA	0.0233
GAAAGATA	-0.0938
GGTGGCCA	-0.136
AATCCGAC	0.363
CGTACTAA	0.033
AGTGGGCG	0.0181
GGTACCTA	-0.1
CGATTAGA	0.0369
CCCACAGA	-0.333
GTGGTGGA	-0.0266
ATCAGATA	-0.173
CGGATAGA	0.294
AGACTAGG	-0.296
ATCTTAGG	-0.298
AACCTCGT	0.0223
AGCTTTAC	-0.128
AGGAAGAA	-0.149
GAAAGAAC	0.0114
ACGGGGAC	0.159
CGTTGACA	-0.187
GCCCAGCA	-0.0648
AGTGAGAG	-0.175

Sequence	PBM E-score
CAGAGACG	-0.0221
AGATAACC	0.072
ACTACCAA	-0.202
ACCGCGGA	0.361
ATCTTCCA	-0.147
GCGACTAA	0.04
CGGTTGTC	0.107
ATATCTAC	0.0684
GCCTGTAA	-0.00046
CCCAGGCC	-0.143
AGCTCGAC	-0.227
ATTACCTA	0.0232
AGTTATAG	-0.184
ACGTTTGA	-0.0528
CTTGGCAC	-0.179
GCCAGAAC	-0.186
CGGGTAGC	0.11
ATATAGCC	0.0706
CTTGGCCA	-0.227
ACGGATAC	0.3
CTTTGACA	-0.247
CACCAGCC	-0.0164

From the supplement of paper PMC3334620
